# Some of the results follow. The list includes weakly bound sequences.
# Molecular target: T1, MBP-FoxP3dN (UniProt Q99JB6)
# T1 sequence: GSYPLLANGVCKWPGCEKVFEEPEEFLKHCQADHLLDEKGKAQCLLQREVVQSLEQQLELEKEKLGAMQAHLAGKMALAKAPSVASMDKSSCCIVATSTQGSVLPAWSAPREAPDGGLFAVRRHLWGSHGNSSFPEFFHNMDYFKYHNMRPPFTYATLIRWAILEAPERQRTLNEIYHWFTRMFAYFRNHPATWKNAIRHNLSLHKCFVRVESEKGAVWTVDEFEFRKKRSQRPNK
# Test: PD-seq (MBP pull-down with sequencing)
# Conditions: 20 mM Tris-HCl pH 7.5, 100 mM NaCl, 1.5 mM MgCl2, 0.4 uM protein, 0.1 uM dsDNA library, 30 min, room temperature, amylose pull-down; high values mean tight binding; double strand, one strand shown
row,Sequence,binding signal (RPM ratio (pull-down/input))
1,GATGATTGTTCTCCCAGCTGATGAATTTATCCTATCGAGTAAACAAATTTTCCTAATCTTTCTGTTCAAGCGCCATCTAC,0.872
2,GATGATTGTTCTCCCAGCTGATGAATTGGCTTTGTCGAGTAAACAAATTTTCCTAATCTTTCTGTTCAAGCGCCATCTAC,1.71
3,GATGATTGTTCTCCCAGCTGATGAATTGAAAAACTCGAGTAAACAAATTTTCCTAATCTTTCTGTTCAAGCGCCATCTAC,0.215
4,GATGATTGTTCTCCCAGCTGATGAATTCCAGCCGTCGAGTAAACAAATTTTCCTAATCTTTCTGTTCAAGCGCCATCTAC,0.342
5,GATGATTGTTCTCCCAGCTGATGAATTACTAGAGTCGAGTAAACAAATTTTCCTAATCTTTCTGTTCAAGCGCCATCTAC,0.28
6,GATGATTGTTCTCCCAGCTGATGAATTTATTTACTCGAGTAAACAAATTTTCCTAATCTTTCTGTTCAAGCGCCATCTAC,6.74
7,GATGATTGTTCTCCCAGCTGATGAATTCTTCGACTCGAGTAAACAAATTTTCCTAATCTTTCTGTTCAAGCGCCATCTAC,0.239
8,GATGATTGTTCTCCCAGCTGATGAATTTGGTACTTCGAGTAAACAAATTTTCCTAATCTTTCTGTTCAAGCGCCATCTAC,0.725
9,GATGATTGTTCTCCCAGCTGATGAATTACTTCTGTCGAGTAAACAAATTTTCCTAATCTTTCTGTTCAAGCGCCATCTAC,0.296
10,GATGATTGTTCTCCCAGCTGATGAATTCCTAGCCTCGAGTAAACAAATTTTCCTAATCTTTCTGTTCAAGCGCCATCTAC,0.345
11,GATGATTGTTCTCCCAGCTGATGAATTCAAATTGTCGAGTAAACAAATTTTCCTAATCTTTCTGTTCAAGCGCCATCTAC,0.581
12,GATGATTGTTCTCCCAGCTGATGAATTCCCTACATCGAGTAAACAAATTTTCCTAATCTTTCTGTTCAAGCGCCATCTAC,0.31
13,GATGATTGTTCTCCCAGCTGATGAATTATGGCGCTCGAGTAAACAAATTTTCCTAATCTTTCTGTTCAAGCGCCATCTAC,0.931
14,GATGATTGTTCTCCCAGCTGATGAATTGATAGCATCGAGTAAACAAATTTTCCTAATCTTTCTGTTCAAGCGCCATCTAC,1.26
15,GATGATTGTTCTCCCAGCTGATGAATTACCATGATCGAGTAAACAAATTTTCCTAATCTTTCTGTTCAAGCGCCATCTAC,0.334
16,GATGATTGTTCTCCCAGCTGATGAATTTTTTGCGTCGAGTAAACAAATTTTCCTAATCTTTCTGTTCAAGCGCCATCTAC,0.525
17,GATGATTGTTCTCCCAGCTGATGAATTATTTCTCTCGAGTAAACAAATTTTCCTAATCTTTCTGTTCAAGCGCCATCTAC,0.353
18,GATGATTGTTCTCCCAGCTGATGAATTCACACATTCGAGTAAACAAATTTTCCTAATCTTTCTGTTCAAGCGCCATCTAC,0.461
19,GATGATTGTTCTCCCAGCTGATGAATTATAGATTTCGAGTAAACAAATTTTCCTAATCTTTCTGTTCAAGCGCCATCTAC,0.367
20,GATGATTGTTCTCCCAGCTGATGAATTCGTGTATTCGAGTAAACAAATTTTCCTAATCTTTCTGTTCAAGCGCCATCTAC,2.95
21,GATGATTGTTCTCCCAGCTGATGAATTTTCATAGTCGAGTAAACAAATTTTCCTAATCTTTCTGTTCAAGCGCCATCTAC,0.271

row,Sequence,binding signal (RPM ratio (pull-down/input))
1,GATGATTGTTCTCCCAGCTGATGAATTATGACCATCGAGTAAACAAATTTTCCTAATCTTTCTGTTCAAGCGCCATCTAC,0.696
2,GATGATTGTTCTCCCAGCTGATGAATTCTCTTAATCGAGTAAACAAATTTTCCTAATCTTTCTGTTCAAGCGCCATCTAC,0.193
3,GATGATTGTTCTCCCAGCTGATGAATTGCACGAATCGAGTAAACAAATTTTCCTAATCTTTCTGTTCAAGCGCCATCTAC,0.519
4,GATGATTGTTCTCCCAGCTGATGAATTAGTAGACTCGAGTAAACAAATTTTCCTAATCTTTCTGTTCAAGCGCCATCTAC,0.847
5,GATGATTGTTCTCCCAGCTGATGAATTCGAGGGATCGAGTAAACAAATTTTCCTAATCTTTCTGTTCAAGCGCCATCTAC,0.267
6,GATGATTGTTCTCCCAGCTGATGAATTTGCGCAATCGAGTAAACAAATTTTCCTAATCTTTCTGTTCAAGCGCCATCTAC,3.76
7,GATGATTGTTCTCCCAGCTGATGAATTACCACATTCGAGTAAACAAATTTTCCTAATCTTTCTGTTCAAGCGCCATCTAC,0.486
8,GATGATTGTTCTCCCAGCTGATGAATTCAAACGGTCGAGTAAACAAATTTTCCTAATCTTTCTGTTCAAGCGCCATCTAC,0.276
9,GATGATTGTTCTCCCAGCTGATGAATTGAGGACTTCGAGTAAACAAATTTTCCTAATCTTTCTGTTCAAGCGCCATCTAC,0.391
10,GATGATTGTTCTCCCAGCTGATGAATTCAGGAATTCGAGTAAACAAATTTTCCTAATCTTTCTGTTCAAGCGCCATCTAC,0.513
11,GATGATTGTTCTCCCAGCTGATGAATTATAGGGGTCGAGTAAACAAATTTTCCTAATCTTTCTGTTCAAGCGCCATCTAC,0.335
12,GATGATTGTTCTCCCAGCTGATGAATTCAATACATCGAGTAAACAAATTTTCCTAATCTTTCTGTTCAAGCGCCATCTAC,0.717
13,GATGATTGTTCTCCCAGCTGATGAATTTTCCCGTTCGAGTAAACAAATTTTCCTAATCTTTCTGTTCAAGCGCCATCTAC,0.209
14,GATGATTGTTCTCCCAGCTGATGAATTAACGGGTTCGAGTAAACAAATTTTCCTAATCTTTCTGTTCAAGCGCCATCTAC,0.329
15,GATGATTGTTCTCCCAGCTGATGAATTCTACGGGTCGAGTAAACAAATTTTCCTAATCTTTCTGTTCAAGCGCCATCTAC,0.199
16,GATGATTGTTCTCCCAGCTGATGAATTGCGTAATTCGAGTAAACAAATTTTCCTAATCTTTCTGTTCAAGCGCCATCTAC,1.58
17,GATGATTGTTCTCCCAGCTGATGAATTATCTGGATCGAGTAAACAAATTTTCCTAATCTTTCTGTTCAAGCGCCATCTAC,0.217
18,GATGATTGTTCTCCCAGCTGATGAATTTGCCCCGTCGAGTAAACAAATTTTCCTAATCTTTCTGTTCAAGCGCCATCTAC,0.335
19,GATGATTGTTCTCCCAGCTGATGAATTATTGGTATCGAGTAAACAAATTTTCCTAATCTTTCTGTTCAAGCGCCATCTAC,1.68
20,GATGATTGTTCTCCCAGCTGATGAATTCCTAATCTCGAGTAAACAAATTTTCCTAATCTTTCTGTTCAAGCGCCATCTAC,0.291
21,GATGATTGTTCTCCCAGCTGATGAATTGTCTCTATCGAGTAAACAAATTTTCCTAATCTTTCTGTTCAAGCGCCATCTAC,0.469

row,Sequence,binding signal (RPM ratio (pull-down/input))
1,GATGATTGTTCTCCCAGCTGATGAATTGTGAATTTCGAGTAAACAAATTTTCCTAATCTTTCTGTTCAAGCGCCATCTAC,2.02
2,GATGATTGTTCTCCCAGCTGATGAATTGAAGGGTTCGAGTAAACAAATTTTCCTAATCTTTCTGTTCAAGCGCCATCTAC,0.354
3,GATGATTGTTCTCCCAGCTGATGAATTGTTCGGTTCGAGTAAACAAATTTTCCTAATCTTTCTGTTCAAGCGCCATCTAC,0.379
4,GATGATTGTTCTCCCAGCTGATGAATTGTGTGAGTCGAGTAAACAAATTTTCCTAATCTTTCTGTTCAAGCGCCATCTAC,2.81
5,GATGATTGTTCTCCCAGCTGATGAATTGTACGCGTCGAGTAAACAAATTTTCCTAATCTTTCTGTTCAAGCGCCATCTAC,0.669
6,GATGATTGTTCTCCCAGCTGATGAATTATCCACGTCGAGTAAACAAATTTTCCTAATCTTTCTGTTCAAGCGCCATCTAC,0.283
7,GATGATTGTTCTCCCAGCTGATGAATTTACCTAATCGAGTAAACAAATTTTCCTAATCTTTCTGTTCAAGCGCCATCTAC,0.617
8,GATGATTGTTCTCCCAGCTGATGAATTGGATGTCTCGAGTAAACAAATTTTCCTAATCTTTCTGTTCAAGCGCCATCTAC,1.48
9,GATGATTGTTCTCCCAGCTGATGAATTTTATATTTCGAGTAAACAAATTTTCCTAATCTTTCTGTTCAAGCGCCATCTAC,0.903
10,GATGATTGTTCTCCCAGCTGATGAATTGCCAAAGTCGAGTAAACAAATTTTCCTAATCTTTCTGTTCAAGCGCCATCTAC,0.348
11,GATGATTGTTCTCCCAGCTGATGAATTATAATTCTCGAGTAAACAAATTTTCCTAATCTTTCTGTTCAAGCGCCATCTAC,0.584
12,GATGATTGTTCTCCCAGCTGATGAATTAAGATCCTCGAGTAAACAAATTTTCCTAATCTTTCTGTTCAAGCGCCATCTAC,0.315
13,GATGATTGTTCTCCCAGCTGATGAATTGTTAGTATCGAGTAAACAAATTTTCCTAATCTTTCTGTTCAAGCGCCATCTAC,4.23
14,GATGATTGTTCTCCCAGCTGATGAATTCCCAATTTCGAGTAAACAAATTTTCCTAATCTTTCTGTTCAAGCGCCATCTAC,0.285
15,GATGATTGTTCTCCCAGCTGATGAATTAGCGTCCTCGAGTAAACAAATTTTCCTAATCTTTCTGTTCAAGCGCCATCTAC,1.18
16,GATGATTGTTCTCCCAGCTGATGAATTGAGCCGCTCGAGTAAACAAATTTTCCTAATCTTTCTGTTCAAGCGCCATCTAC,1.04
17,GATGATTGTTCTCCCAGCTGATGAATTGATGTGATCGAGTAAACAAATTTTCCTAATCTTTCTGTTCAAGCGCCATCTAC,0.886
18,GATGATTGTTCTCCCAGCTGATGAATTAAAGGAGTCGAGTAAACAAATTTTCCTAATCTTTCTGTTCAAGCGCCATCTAC,0.228
19,GATGATTGTTCTCCCAGCTGATGAATTAATCTCGTCGAGTAAACAAATTTTCCTAATCTTTCTGTTCAAGCGCCATCTAC,0.222
20,GATGATTGTTCTCCCAGCTGATGAATTCTAGACCTCGAGTAAACAAATTTTCCTAATCTTTCTGTTCAAGCGCCATCTAC,0.236
21,GATGATTGTTCTCCCAGCTGATGAATTGGCGCTCTCGAGTAAACAAATTTTCCTAATCTTTCTGTTCAAGCGCCATCTAC,0.52

# From article PMC12820563
